From PubChem BioAssay AID1768 (National Center for Advancing Translational Sciences (NCATS), 2009)
Hit rate of the full screen: of about 270,000 compounds, about 620 (0.23%) were called active. The inconclusive results got no clear call from the source; some entries with a clear call stand among them for comparison. Calls come from the whole dose curve; as a rule, active = well fitted inhibition curve with a large enough effect in the polarisation, with a control signal flat (not every such curve was filed as active); inconclusive = small, poorly fitted or top-dose-only effect, or effect the other way, or a change in a side signal; inactive = no such curve, though single readings can be large or run the other way; the % refers to the polarisation. A potency beside an inconclusive call is a rough fit, not a confirmed value. “Side channel” marks fits to a control or component signal instead of the main read-out.

What follows are molecules tested against Menin (Homo sapiens) (UniProt O00255) (assay: qHTS Assay for Inhibitors Targeting the Menin-MLL Interaction in MLL Related Leukemias: Competition With Texas Red Labeled MLL-derived Mutant Peptide). Conditions: fluorescence polarization; FP activity change, negative = inhibition: at 61.6 µM (top of the series).
Chain of UniProt O00255 (O00255 whole entry, looked up): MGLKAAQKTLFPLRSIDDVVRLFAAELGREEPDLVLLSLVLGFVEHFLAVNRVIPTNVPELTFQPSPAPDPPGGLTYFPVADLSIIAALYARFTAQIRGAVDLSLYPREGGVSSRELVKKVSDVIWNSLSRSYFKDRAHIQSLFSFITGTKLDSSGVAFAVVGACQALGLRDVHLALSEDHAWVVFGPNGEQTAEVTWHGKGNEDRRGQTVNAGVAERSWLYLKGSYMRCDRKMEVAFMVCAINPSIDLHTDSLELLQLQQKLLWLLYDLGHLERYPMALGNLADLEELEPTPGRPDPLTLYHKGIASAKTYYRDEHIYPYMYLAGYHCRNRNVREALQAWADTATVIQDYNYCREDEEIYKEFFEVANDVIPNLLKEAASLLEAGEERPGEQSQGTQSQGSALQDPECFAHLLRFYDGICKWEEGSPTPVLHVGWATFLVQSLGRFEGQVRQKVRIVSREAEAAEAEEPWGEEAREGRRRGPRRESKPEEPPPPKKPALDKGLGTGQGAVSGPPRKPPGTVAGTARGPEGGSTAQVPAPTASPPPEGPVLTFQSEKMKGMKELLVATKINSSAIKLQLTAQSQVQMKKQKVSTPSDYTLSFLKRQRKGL
Potency is the fitted concentration of half-maximal effect; tags give direction and shape of the fitted curve or compound fluorescence and quenching.
Throughout, for FP activity change, negative = inhibition: % of control where 0% means no effect.

Potency, inconclusive:
O=C(O)COc1ccc(/C=N/NC(=O)c2cn(-c3ccccc3)nc2-c2ccccc2)cc1 22.4 µM [quencher, side channel, single point]
COc1ccc(/C=N/NC(=O)c2cc(-c3ccccc3)nc3ccccc23)c(C(=O)O)c1OC 20 µM [quencher, side channel, single point]
CN(C)/C=C\C(=C/C(=O)C(F)(F)F)Nc1ccccc1Oc1ccccc1 10 µM [fluorescent, side channel, partial curve]
CCCS(=O)(=O)c1c(S(=O)(=O)CCC)c2c(N)cccn2c1C(=O)c1ccc(F)cc1 28.2 µM [quencher, side channel, partial curve]
C=CCN1c2ccccc2[C@]23C[C@@H](C(=O)OC)N(S(=O)(=O)c4ccc([N+](=O)[O-])cc4)C2=NC(C(=O)OC)=C(C(=O)OC)[C@H]13 3.16 µM [quencher, side channel, single point]
Cc1cccc(N(CC(=O)NCC2CCCO2)C(=O)CNS(=O)(=O)c2ccc(Cl)cc2)c1 (stereo unspecified) 3.98 µM [quencher, side channel, single point]
CCN(CC)CCn1c(NCc2ccco2)nc2ccccc21 2.82 µM [inhibitor, single point]
CN(C)c1ccc(/C=C2\NC(=S)N(Cc3ccccc3)C2=O)cc1 10 µM [quencher, side channel, partial curve]
CCOc1ccc(OCc2ccc(C(=O)N3CCc4ccccc4C3)o2)cc1 8.91 µM [fluorescent, side channel, full curve, poor fit]
NS(=O)(=O)c1ccc(N/N=C/C=C/c2ccccc2[N+](=O)[O-])cc1 22.4 µM [quencher, side channel, partial curve]
Cc1cccc(OCC(=O)NCC(=O)N=Nc2c(O)[nH]c3ccc([N+](=O)[O-])cc23)c1 28.2 µM [quencher, side channel, single point]
Cc1csc(NC(=O)c2cc(-c3ccccc3)nc3ccccc23)n1 39.8 µM [inhibitor, single point]
CN(C)S(=O)(=O)c1cccc(NC(=O)COC(=O)/C=C/c2ccc([N+](=O)[O-])cc2)c1 28.2 µM [quencher, side channel, partial curve]
Cc1cc(C(=O)NCc2cccc(Cl)c2)c2ccccc2n1 20 µM [inhibitor, single point]
O=c1c(O)c(-c2ccc(O)c(O)c2)oc2c(OC[C@@H]3O[C@@H](O)[C@@H](O)[C@H](O)[C@H]3O)c(O)cc(O)c12 31.6 µM [quencher, side channel, partial curve]
O=C(O)CC/C(=N\Nc1ccc(S(=O)(=O)N2CCCC2)cc1[N+](=O)[O-])c1cccs1 12.6 µM [quencher, side channel, partial curve]
COc1cccc(CNC(=O)CSc2nnc3c(n2)[nH]c2ccc(C)cc23)c1 25.1 µM [fluorescent, single point]
COc1ccc(N2CCN(CCCNC(=O)CN3CCN(Cc4ccccc4C)C3=O)CC2)cc1 22.4 µM [fluorescent, side channel, single point]
Nc1cc(CN2C(=O)c3ccccc3C2=O)cc(Cl)c1O 39.8 µM [quencher, side channel, single point]
O=C1/C(=C/N(C(=O)c2ccco2)c2ccc(Cl)cc2)Sc2ccccc21 35.5 µM [fluorescent, side channel, single point]
COc1ccc(OC)c(-c2csc(N(C)C(=O)c3ccco3)n2)c1 39.8 µM [inhibitor, single point]
COc1ccc2nc(SCC(=O)NC3CCCC3)c(C)cc2c1 25.1 µM [fluorescent, side channel, single point]
COCCN1CCCC(CNCc2cn(C)nc2-c2ccc(Oc3ccccc3)cc2)C1 (stereo unspecified) 8.91 µM [inhibitor, partial curve]
O=C(c1cc2nc(-c3ccccc3)cc(-c3ccccc3)n2n1)N1CCCC1 0.708 µM [fluorescent, side channel, full curve, poor fit]
CCOC(=O)Cc1cn2c(=O)cc(CSCC(=O)Nc3ccc(C)c(C)c3)nc2s1 39.8 µM [quencher, side channel, single point]
O=C(O)Cn1cc(/C=N/Nc2ccc([N+](=O)[O-])cn2)c2ccccc21 14.1 µM [quencher, side channel, partial curve]
CCOC(=O)c1cnc2[nH]c3ccccc3n2c1=O 17.8 µM [fluorescent, side channel, single point]
Oc1ccc(-c2onc3ccc(Cl)cc23)cc1 39.8 µM [quencher, side channel, single point]
CCOC(=O)c1ccc[n+](CC(=O)Nc2cc(C(F)(F)F)ccc2Cl)c1 20 µM [fluorescent, side channel, partial curve]
O=C(N[C@@H](Cc1ccccc1)C(=O)CCl)OCc1ccccc1 20 µM [fluorescent, side channel, partial curve]
O=c1c2cc(NC(=S)NCc3cccnc3)ccc2nc2n1CCCCC2 1.41 µM [inhibitor, partial curve]
CCCCn1c(SCC(=O)N2c3ccccc3Sc3ccccc32)nc2c1c(=O)n(C)c(=O)n2C 6.31 µM [inhibitor, single point]
Cc1ccccc1OCc1nnc(SCc2cc(=O)[nH]c3ccccc23)o1 25.1 µM [fluorescent, side channel, partial curve]
C=CCN1C(=O)/C(=C\c2cccc(OC(=O)c3ccco3)c2)SC1=S 39.8 µM [inhibitor, single point]
O=C(Nc1cccc(C(F)(F)F)c1)Nc1ccc(N2CCCC2)c(S(=O)(=O)Nc2ccccc2Cl)c1 2.51 µM [quencher, side channel, full curve]
Cc1ccc(/C=N/N(C)C2=NS(=O)(=O)c3ccccc32)cc1 20 µM [fluorescent, side channel, partial curve]
Cc1ccc2nc(-c3ccc(NC(=O)c4cccnc4)cc3)oc2c1 15.8 µM [quencher, side channel, partial curve]
N=C1C(c2nc3ccccc3s2)=C(O)CN1NC(=O)c1c[nH]c2ccccc12 28.2 µM [fluorescent, side channel, single point]
O=C(COC(=O)c1c2c(nc3ccccc13)CCCC2)Nc1ccc2c(c1)OCO2 12.6 µM [quencher, side channel, partial curve]
COc1cc(/C=N/Nc2cccc3cccnc23)cc(OC)c1O 14.1 µM [quencher, side channel, partial curve]
CCn1c(-c2ccccc2)c(C(=O)CCl)c2ccccc21 10 µM [fluorescent, side channel, partial curve]
COc1ccc(C(=O)Nc2ccc(N3CCCC3)cc2)cc1OC 39.8 µM [inhibitor, single point]
CCOc1ccc(N/C=C/C(=O)c2ccc3ccccc3c2)c([N+](=O)[O-])c1 20 µM [inhibitor, single point]
COc1cc(Cl)c(CC(=O)c2c[nH]c3ccccc23)cc1OC 39.8 µM [fluorescent, side channel, single point]
O=C(CCN1C(=O)/C(=C\C=C\c2ccccc2)SC1=S)Nc1cccc(C(=O)O)c1 31.6 µM [quencher, side channel, partial curve]
COC(=O)c1nn(-c2ccc(OC)cc2)c(=O)cc1Sc1ccc(C)cc1 20 µM [inhibitor, partial curve]
CCc1cccc(NC(=O)CCc2nc(-c3cccs3)no2)c1 22.4 µM [quencher, side channel, single point]
C/C(=N\NC(=O)c1cc(Br)ccc1O)c1ccccn1 12.6 µM [quencher, side channel, partial curve]
COc1cc(/C=C2/S/C(=N/S(=O)(=O)c3ccccc3)NC2=O)c([N+](=O)[O-])cc1OC 39.8 µM [quencher, side channel, single point]

FP activity change, negative = inhibition, inactive:
O=C(O)C1CC(CCCP(=O)(O)O)CCN1 (stereo unspecified) 4.79%
COc1cc(N/N=C/c2ccccc2O)ncn1 8.69%
COc1ccc(CCNC(=O)c2ccc(CN3CCC(Cc4ccccc4)CC3)cc2)cc1OC -4.82%
CCN1C(=O)CCCc2ccccc21 -0.885%
CC(COc1ccc(/C=C/c2ccccc2)cc1)[N+](C)(C)C (stereo unspecified) -0.51%
O=c1cnc2cncnc2n1Cc1ccccc1Cl 6.91%
O=C1NC(c2ccccc2Cl)Nc2ccccc21 (stereo unspecified) -1.96%
